# Source: PubChem BioAssay AID588855 (National Center for Advancing Translational Sciences (NCATS), 2011)
# Several values for one entry are separate records, joined by “and”; a condition that tells them apart may be missing. Identical values can stand only once. Among all 410,000 compounds or so, about 5,000 (1.2%) were called active. This list was built around the results that the source calls inconclusive (neither active nor inactive); the mix of calls is not that of the screen. The call rests on the fitted dose curve; in most records, active means well fitted inhibition curve with a large enough effect; inconclusive means small, poorly fitted or top-dose-only effect; inactive means no such curve, though single readings can be large or run the other way. Where the call is inconclusive, the potency comes from a doubtful curve fit.
# Test: qHTS for Inhibitors of TGF-b; further: nearly all actives have a fitted effect of over 65% in size
# Conditions: HepG2 CAGA-GFP TGF-b/SMAD3 reporter, GFP fluorescence, 18 h, TGF-beta stimulated, 500 pg/mL final; series mostly up to 46.1 µM; activity, negative = inhibition: at the top concentration
# Procedure, shortened: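 Using HEPG2 CAGA-GFP reporter cells at 1000 cells/well, we pinned test compounds, stimulated with recombinant TGF-beta (500 pg/mL final) and measured total well GFP after 18 h.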
# On the % scale 0 is the no-effect control and ±100 the full control effect; potency means the concentration at half of the fitted maximal effect; tags describe the fitted curve by direction and shape.
SMILES,Potency,"activity, negative = inhibition"
c1ccc(C2C/C(=N\N3CCOCC3)c3ccccc3O2)cc1 (stereo not given),"inconclusive: 2.51 µM [inhibitor, full curve, poor fit]",–
COc1cccc(/C=N/NC(=O)C(=O)Nc2ccccc2OC(F)(F)C(F)F)c1,–,inactive: 7.18%
CC1CCC(NC(=O)c2cc3c(Cl)nc4ccccc4c3s2)CC1 (stereo not given),"inconclusive: 0.398 µM [inhibitor, partial curve, poor fit]",–
O=C(Cn1ccc2cc(S(=O)(=O)N3CCCCC3)ccc21)NCc1cccc(Cl)c1,"inconclusive: 35.5 µM [inhibitor, single point]",–
CCOC(=O)c1cn[nH]c1NC(=S)Nc1ccc(OC)cc1,–,inactive: -28.4%
CCOC(=O)c1[nH]c2ccc(Br)cc2c1NC(=O)CCN1CCCC(C)(C)C1,"inconclusive: 35.5 µM [inhibitor, single point]",–
CC(NC(=O)CN(c1ccc(Cl)cc1Cl)S(=O)(=O)c1ccccc1)c1ccccc1 (stereo not given),"inconclusive: 35.5 µM [inhibitor, single point]",–
CCN(CC)c1ccc(/C=N/NC(=O)c2ccco2)cc1,"inconclusive: 0.501 µM [inhibitor, full curve, poor fit]",–
CC(=O)NC12CC3CC(C1)CC(C(=O)N(C)CC(=O)Nc1ccccc1Cl)(C3)C2,"inconclusive: 14.1 µM [inhibitor, single point]",–
Cc1ccccc1C(=O)N(Cc1nc(-c2ccc(Cl)cc2)no1)C(C)C,"inconclusive: 22.4 µM [inhibitor, partial curve, poor fit]",–
C/C(=N\NC(=O)c1cc(C)nc2ccccc12)c1ccc([N+](=O)[O-])cc1,–,inactive: 22.8%
CNC(=O)c1c(NC(=O)/C=C/c2ccccc2Cl)sc2c1CCC2,–,inactive: 3.46%
CCCCN1C(=O)C(CC(=O)NCc2ccco2)CC(C(=O)N(CC)CC)=C1C (stereo not given),–,inactive: 12.6%
COC(=O)CN(c1ccccc1)S(=O)(=O)c1cc(Br)ccc1OC,–,inactive: 9.42%
CC(NC(=O)NC(=O)c1ccc(Cl)cc1)c1ccccc1 (stereo not given),–,inactive: -13.3%
CN1C(=O)/C(=C\C(=O)c2cccs2)c2ccccc21,"inconclusive: 22.4 µM [inhibitor, single point]",–
O=C(NC1CCCc2ccccc21)c1ccccc1 (stereo not given),–,inactive: -4.73%
C=CCN(Cc1ccc(OC)c(OC)c1)C(=O)c1cc2cc(F)ccc2[nH]1,"inconclusive: 22.4 µM [inhibitor, single point]",–
CCOC(=O)c1cc(C)sc1NC(=S)Nc1ccccc1,–,inactive: -3.35%
Cc1ccc(-n2ncc(C(=O)NCCc3c[nH]c4ccccc34)c2C2CCN(C(=O)OC(C)(C)C)CC2)cc1C,"inconclusive: 6.31 µM [inhibitor, partial curve]",–
CCN(Cc1nc2cc(Cl)ccc2c(=O)[nH]1)C(=O)CN1C(=O)NC2(CCCCC2C)C1=O (stereo not given),–,inactive: -1.2%
COc1cc(-c2noc(CCC(=O)Nc3cc(C)ccc3C)n2)cc(OC)c1OC,"inconclusive: 0.251 µM [inhibitor, full curve, poor fit]",–
Cc1ccc(OCc2n[nH]c(=S)n2Cc2ccccc2)cc1,–,inactive: 0%
Cc1nn(C(=O)CCC(=O)NCCc2ccccc2)c2ccccc12,–,inactive: -0.0865%
CCCC1CCc2c(sc(N)c2C(N)=O)C1 (stereo not given),"inconclusive: 3.98 µM [inhibitor, partial curve, poor fit]",–

SMILES,Potency,"activity, negative = inhibition"
COc1ccccc1OCc1ccc(C(=O)NN)o1,–,inactive: -7.39%
Cc1ccc(S(=O)(=O)c2c(Nc3cc(F)ccc3F)sc(C(=O)c3ccc(F)cc3)c2N)cc1,"inconclusive: 1.41 µM [inhibitor, full curve, poor fit]",–
CCOC(=O)c1c(CN2CCN(CCO)CC2)n(C)c2cc(Br)c(OC)cc12,–,inactive: 36.5%
COc1ccc(-c2c(C)nn(-c3ccccc3)c2N)cc1,–,inactive: 22.8%
CC(C)Cn1c(=O)c(C(=O)NCc2ccccn2)c(O)c2ccccc21,–,inactive: 1.85%
Cc1nn2c(NCc3ccccn3)cc(C(C)C)nc2c1-c1ccccc1,active: 11.2 µM,–
CCc1nnc(NC(=O)CCN(c2cc(C)cc(C)c2)S(=O)(=O)c2ccc(Cl)cc2)s1,–,inactive: -13.1%
CS(=O)(=O)N(CCc1ccccc1)CC(=O)NCC1CCCO1 (stereo not given),"inconclusive: 3.98 µM [inhibitor, single point]",–
COc1cccc(/C=N/NC(=O)CNC(=O)/C=C\c2ccccc2)c1O,"inconclusive: 3.16 µM [inhibitor, single point]",–
O=c1nc(N/N=C/C=C/c2ccccc2)cn[nH]1,–,inactive: 1.04%
C(C#CCN1CCOCC1)#CCN1CCOCC1,–,inactive: -8.27%
O=C1N=C(N2CCN(c3ccccc3)CC2)S/C1=C\c1cn[nH]c1-c1ccccc1,–,inactive: -7.67%
Cc1cccc(NC(=O)CSc2nncn2C)c1,–,inactive: 35.8%
Cc1ccc(Nc2c(-c3ccc(O)cc3)nc3cccc(C)n23)cc1,"inconclusive: 6.31 µM [inhibitor, single point]",–
CCOC(=O)N(C)c1c(CC)nc2c(OCc3ccc(C(F)(F)F)cc3)cccn12,"inconclusive: 10 µM [inhibitor, partial curve]",–
COC(=O)c1ccc(CSc2nc3c(cnn3-c3ccc(C)cc3)c(=O)[nH]2)o1,–,inactive: -1.74%
COC(=O)c1ccc(-c2ccc(/C=N/N3C(=O)C4C5C=CC(C6CC56)C4C3=O)o2)cc1 (stereo not given),–,inactive: 1.94%
Cc1nc(-c2ccc(Cl)cc2)sc1CCNC(=O)c1cccs1,"inconclusive: 35.5 µM [inhibitor, single point]",–
O=[N+]([O-])c1ccc(OCc2cccc(COc3ccc([N+](=O)[O-])cc3)n2)cc1,"inconclusive: 3.55 µM [inhibitor, single point]",–
O=C1Nc2ccccc2/C1=N/N=C/c1cccc(O)c1,–,inactive: -23.9%
CCOC(=O)C1CCN(C2CCN(Cc3nc(-c4ccccc4)no3)CC2)CC1,–,inactive: -25.7%
Cc1cc(C(=O)COc2ccccc2C(N)=O)c(C)n1C,–,inactive: -1.75%
Cc1ccc(NC(=O)Cc2csc(C)n2)c(C)c1,–,inactive: -27.8%
Cc1ccc(C)[n+](CC(=O)c2ccc(-c3ccccc3)cc2)c1,"inconclusive: 35.5 µM [inhibitor, single point]",–
CCCc1cc(=O)oc2cc(OCc3ccc(C(=O)O)cc3)ccc12,–,inactive: -1.08%

SMILES,Potency,"activity, negative = inhibition"
COc1cc(C(CCN2CCCCC2)c2c(OC)cc(OC)c3c(-c4ccccc4)cc(=O)oc23)cc(OC)c1OC (stereo not given),"inconclusive: 20 µM [inhibitor, partial curve, poor fit] and inconclusive: 20 µM [inhibitor, single point]",–
CCCOc1ccc(C(=O)N(Cc2ccc(N(C)C)cc2)CC2CCCO2)cc1 (stereo not given),"inconclusive: 35.5 µM [inhibitor, single point]",–
Cc1ccc(-n2nc(C)c(NC(=O)CCl)c2C)cc1C,"inconclusive: 14.1 µM [inhibitor, single point]",–
CC(C)(C)NC(=O)NC(=O)CN1CCC(Cc2ccccc2)CC1,"inconclusive: 5.62 µM [inhibitor, single point]",–
O=C1/C(=C/c2ccccc2Cl)SC(=S)N1CCC(=O)N1CCCCC1CCO (stereo not given),"inconclusive: 12.6 µM [inhibitor, partial curve]",–
CCc1nn(C(CC)C(=O)NCc2ccc(F)cc2)c(=O)c2cc3occc3n12 (stereo not given),"inconclusive: 12.6 µM [inhibitor, partial curve, poor fit]",–
S=C(Nc1ccc(Cl)cc1)N1CCCCC1,"inconclusive: 2.82 µM [inhibitor, full curve, poor fit]",–
CCCCCCn1nc(C(=O)N(CC(C)C)c2c(N)n(CCCC)c(=O)[nH]c2=O)c2ccccc2c1=O,"inconclusive: 35.5 µM [inhibitor, single point]",–
CC(C)C[C@H]1CNC(=S)N1C[C@H]1CCCN1C[C@H](Cc1ccc(O)cc1)N1C[C@H](Cc2ccc(O)cc2)N(CC2CCCCC2)C1=S,active: 15.8 µM,–
O=C(COC(=O)C1CC2C=CC1C2)Nc1ccc2c(c1)OC(F)(F)O2 (stereo not given),–,inactive: -7.69%
Cc1ccc(C(=O)N(CC(=O)NC2CCCCC2)c2ccccc2F)s1,–,inactive: -16.5%
O=C(CCc1ccccc1)N(Cc1cccnc1)c1nc2c(F)cccc2s1,"inconclusive: 35.5 µM [inhibitor, partial curve, poor fit]",–
COc1cccc(OCC(O)CN2CCC(CN3C(=O)c4cccc5cccc(c45)C3=O)CC2)c1 (stereo not given),"inconclusive: 15.8 µM [inhibitor, partial curve, poor fit]",–
CC1(C)CC(=O)C(=Cc2cn(-c3ccccc3)nc2-c2ccccc2)C(=O)C1,–,inactive: -0.791%
C=CCNC(=S)NNC(=O)C(CCCC)CC(C)O (stereo not given),"inconclusive: 3.55 µM [inhibitor, single point]",–
Cc1ccc(NC(=O)C(NC2CCCC2)c2ccccc2)cc1Cl (stereo not given),–,inactive: -26.9%
Cc1ccc(-c2nnn(CC(=O)Nc3ccccc3N3CCOCC3)n2)cc1,"inconclusive: 35.5 µM [inhibitor, single point]",–
COc1cc(CNCc2cccc3ccccc23)cc(OC)c1,"inconclusive: 10 µM [inhibitor, partial curve, poor fit]",–
O=[N+]([O-])c1ccc(N2CCN(C(=S)Nc3ccc(F)cc3)CC2)cc1,–,inactive: -25.3%
COc1ccc2sc(NCc3ccccc3)nc2c1,–,inactive: -10.9%
CCOC(=O)CN1N=C(c2ccc(C)cc2)CCC1=O,"inconclusive: 6.31 µM [inhibitor, single point]",–
O=C(N/N=C/c1c(O)ccc2ccccc12)c1cccnc1,–,inactive: 5%
Cc1cccc(N(CC(=O)NCCc2ccccc2)C(=O)c2csnn2)c1,–,inactive: 0.316%
COc1cc(OC)c(N(C)S(=O)(=O)c2cccc(C(=O)OCC(=O)N(C)C3CCCCC3)c2)cc1Cl,"inconclusive: 35.5 µM [inhibitor, single point]",–
Cc1cc(C)cc(NC(=O)C2CCCN(C(=O)c3cnn(-c4ccccc4)c3-n3cccc3)C2)c1 (stereo not given),"inconclusive: 12.6 µM [inhibitor, partial curve, poor fit]",–
